In the supplement of paper PMC3334620:
In all, about 33,000 sequences were measured (“E-score (-0.5 to 0.5)”: median about -0.041, highest 2% from about 0.37 on). This is one part of the list.

What follows are sequences tested against T1, Ecm22 (UniProt Q05958) (assay: PBM E-score (8-mer binding enrichment) (E-score (-0.5 to 0.5)); higher = stronger / more preferred TF binding; most listed sequences are background and not binding sites). Settings: protein concentration: 200 nM; construct: GST-full length.
T1 sequence: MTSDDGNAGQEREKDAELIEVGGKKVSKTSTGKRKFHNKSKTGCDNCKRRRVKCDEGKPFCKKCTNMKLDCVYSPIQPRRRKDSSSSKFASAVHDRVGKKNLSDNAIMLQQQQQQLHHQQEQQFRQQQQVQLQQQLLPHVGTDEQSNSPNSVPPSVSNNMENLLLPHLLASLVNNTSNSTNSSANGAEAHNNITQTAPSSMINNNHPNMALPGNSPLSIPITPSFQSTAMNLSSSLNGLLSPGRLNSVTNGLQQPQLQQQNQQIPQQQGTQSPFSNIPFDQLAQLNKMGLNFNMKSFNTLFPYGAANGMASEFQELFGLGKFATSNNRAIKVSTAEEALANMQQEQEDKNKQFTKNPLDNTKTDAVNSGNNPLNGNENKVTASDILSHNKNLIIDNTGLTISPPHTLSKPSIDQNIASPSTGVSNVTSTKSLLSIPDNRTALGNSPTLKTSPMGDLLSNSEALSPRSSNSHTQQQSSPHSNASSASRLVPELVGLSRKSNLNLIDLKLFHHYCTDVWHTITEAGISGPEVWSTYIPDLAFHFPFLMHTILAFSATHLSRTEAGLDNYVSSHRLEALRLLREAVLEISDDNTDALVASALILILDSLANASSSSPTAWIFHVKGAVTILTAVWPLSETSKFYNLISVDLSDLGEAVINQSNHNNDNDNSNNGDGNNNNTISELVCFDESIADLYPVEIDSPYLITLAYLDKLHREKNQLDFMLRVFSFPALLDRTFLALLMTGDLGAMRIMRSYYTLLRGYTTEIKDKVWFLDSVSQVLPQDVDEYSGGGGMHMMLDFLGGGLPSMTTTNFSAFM
Description: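 Universal 'all 10-mer' protein binding microarrays (Agilent AMADID 015681) probed with GST-tagged S. cerevisiae TFs (full-length or DBD) made by in vitro transcription/translation (PURExpress), about 100-200 nM. Bound TF was detected with fluorescent anti-GST. Each ungapped 8-mer (which stands for itself and its reverse complement) is scored by the PBM enrichment score (E-score), a modified Wilcoxon-Mann-Whitney statistic from -0.5 to +0.5, computed with the Universal PBM Analysis Suite. Scale: above 0.35 generally sequence-specific binding.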

| Sequence | PBM E-score |
| --- | --- |
| CCTATGTC | -0.0471 |
| CCACACTA | -0.0747 |
| GCACGTCA | -0.236 |
| CCTACAAC | -0.0853 |
| ATCACGTA | 0.146 |
| GCCACACC | -0.142 |
| ATTTGTAG | -0.154 |
| ATCTCAGG | -0.205 |
| AGAGCGAT | 0.0348 |
| AGCCAACA | -0.14 |
| ACCAAAGC | 0.023 |
| ACGCGTGC | -0.012 |
| AGGGTGGG | -0.138 |
| CATGTTAG | -0.188 |
| ATGATTTG | -0.152 |
| AGCCGGCA | -0.122 |
| AAGCGCCT | -0.178 |
| GAGGGCCC | -0.157 |
| CACTTTGA | -0.243 |
| GCAATGTA | 0.0905 |
| ACCCCTGC | -0.385 |
| CGAATTTA | 0.195 |
| TAGGCATA | -0.199 |
| GCATTGGC | -0.25 |
| CGGGAGGC | -0.194 |

| Sequence | PBM E-score |
| --- | --- |
| ATTGGATC | -0.153 |
| ACTAATCC | 0.0416 |
| TGGTACAA | -0.167 |
| TATTATGA | 0.121 |
| GCCTGCCC | -0.174 |
| AACCGCGG | 0.145 |
| CTGAGTTA | -0.234 |
| ACAGAAAT | 0.0671 |
| TCGAAGAA | -0.0464 |
| CCCAGTAA | -0.206 |
| ACCTGTAA | 0.17 |
| CTTTATGC | -0.0617 |
| GCGTTAAC | 0.154 |
| TTGTAAAA | 0.0509 |
| ACATCGAG | 0.0646 |
| CCCTCCAA | -0.206 |
| AAGTGCAT | -0.185 |
| ACTATCTG | -0.146 |
| AGGCTCAT | -0.178 |
| ACCAGAAA | -0.0057 |
| CGAGATAG | 0.0664 |
| CTTAAAAG | -0.331 |
| TAATCCGA | 0.112 |
| AAGTTAGA | -0.21 |
| ACAAGGAG | 0.0186 |

| Sequence | PBM E-score |
| --- | --- |
| ATTCGCAG | -0.00814 |
| ACAAGATG | -0.158 |
| AAATTGGC | -0.0614 |
| AACGGCTG | 0.114 |
| CCATACAC | 0.00013 |
| AGCGCGAG | 0.0786 |
| AAGCCACG | 0.0177 |
| ACTGGATA | 0.00817 |
| CTTGCTAC | 0.0718 |
| ACACTTAA | 0.035 |
| AACCCCGT | 0.0296 |
| ATGTAGGG | -0.259 |
| ATTAATCC | 0.0266 |
| CCCACGCA | 0.0382 |
| TCTGCTAA | -0.086 |
| ACGTGGTC | -0.0786 |
| AGTTAATG | -0.0767 |
| GATACCAA | 0.0918 |
| CTTGACGA | 0.0482 |
| AATAATAG | -0.13 |
| GCCTACGC | -0.139 |
| CTCGCAAC | 0.18 |
| CATCGCGC | 0.184 |
| AAAGTATG | -0.0997 |
| CAAAAAAG | -0.224 |

| Sequence | PBM E-score |
| --- | --- |
| ACGTGGTA | 0.166 |
| AGCGAATC | 0.244 |
| GATACTCC | -0.0275 |
| GCCTAGAC | 0.0217 |
| AAACAGTC | -0.058 |
| CAGTATAA | 0.004 |
| TCGTTTCA | 0.396 |
| CGAGTCGA | 0.249 |
| CGGGAGAG | 0.0796 |
| ACATTGCC | -0.2 |
| CAAAGAAG | 0.0285 |
| CCATGGAG | -0.246 |
| AGCGGGTC | -0.0372 |
| GACAGAAA | 0.219 |
| GACAGCAC | 0.103 |
| CTCACGAA | 0.128 |
| AAATTGAA | -0.166 |
| AGGAGGGG | -0.2 |
| GCACATTA | -0.0239 |
| AACTCGCA | 0.223 |
| CCTAGCCA | -0.177 |
| ATATGGGA | -0.124 |
| AAGAGAAC | 0.217 |
| AAGGAAAT | -0.137 |
| CGGCTTAC | 0.0978 |

| Sequence | PBM E-score |
| --- | --- |
| ATCTGTCC | -0.198 |
| AGGCAGGA | -0.0717 |
| GTGCCGAA | 0.0561 |
| CGCAGCAG | -0.0519 |
| AAGAACAG | -0.13 |
| AGTTGTAC | 0.124 |
| CGAGAGTC | 0.0669 |
| CTATTCTC | -0.212 |
| CATACTAA | 0.0964 |
| CTGGGCAC | 0.0366 |
| ACTGATAA | -0.139 |
| ACTCCTCT | -0.113 |
| CCGACGTC | 0.138 |
| TAGAGATA | 0.0142 |
| TGTGCACA | -0.183 |
| ATACGACG | 0.485 |
| CAACGTAG | 0.0404 |
| CCGTTAGA | 0.0314 |
| GCAGACGA | 0.176 |
| GCGGCACC | -0.0132 |
| CTGACCCA | -0.312 |
| CGCTCTTA | 0.215 |
| CCCGTTGC | 0.111 |
| GCAAGTTA | -0.0155 |
| GCTGCGAC | -0.107 |

| Sequence | PBM E-score |
| --- | --- |
| CGCGGAGC | 0.116 |
| GGTTTGAA | 0.0742 |
| CATAGTGC | 0.0266 |
| AAGTTAGC | 0.0401 |
| ATATTCCG | -0.0407 |
| AGTGTGTC | 0.0483 |
| GTCCGAAA | 0.249 |
| ACACCCGT | 0.154 |
| CGCAAGGA | 0.00205 |
| GGGCTATA | -0.162 |
| ACCACTAA | 0.123 |
| ACGACAAT | 0.368 |
| AAGGTGGT | -0.298 |
| CGAACAAG | 0.158 |
| ATTAGAGA | -0.0682 |
| GCATGATA | -0.031 |
| CCAGTCAG | -0.31 |
| GCCACCCC | -0.106 |
| ACAGACGT | -0.0727 |
| CATTGATA | 0.0226 |
| TGAAGTCA | -0.133 |
| CACATATA | -0.117 |
| CCCTGGAC | -0.193 |
| CACGACAG | 0.0642 |
| GCCTATTA | -0.0588 |

| Sequence | PBM E-score |
| --- | --- |
| AATTCTCC | -0.0147 |
| CATGAACA | 0.0163 |
| AGTATGAG | -0.0843 |
| CAAACTCG | 0.0876 |
| AGGCCGCG | -0.0473 |
| ATTCGCAC | 0.189 |
| CGTTAGAC | 0.0318 |
| GATAGAGA | -0.0432 |
| GAACGGAA | 0.34 |
| CAAATGAG | -0.00945 |
| ACCGGAAT | -0.079 |
| AGCCCGTC | -0.207 |
| AAAACGAA | 0.277 |
| AATATTGG | -0.0443 |
| CGGATGCC | 0.097 |
| AATGGTTG | -0.095 |
| GTTCGAAC | 0.217 |
| ACGTGGCG | 0.0766 |
| ATGCTCTC | -0.0494 |
| CTTAAGGA | -0.198 |
| TATATAGA | 0.183 |
| AGGTGCGG | -0.0606 |
| AAGACAGA | 0.0769 |
| AAACATTT | -0.0803 |
| GGTGCACA | -0.0783 |

| Sequence | PBM E-score |
| --- | --- |
| ATCGAAAG | -0.00466 |
| CCTATTTA | -0.2 |
| ACCGCACT | 0.188 |
| AGGAACCC | -0.094 |
| AATAACAG | 0.00164 |
| CAACAGGA | -0.194 |
| CTACGGGA | 0.146 |
| ATACCCGC | 0.0566 |
| AGTCGAAG | -0.17 |
| ACCTCGCT | 0.29 |
| AGGCGATG | -0.12 |
| CGAACTCG | 0.307 |
| CCTCAGCA | -0.151 |
| GAGAGGAC | -0.187 |
| TTATAAAA | -0.0561 |
| GAACTGTC | 0.103 |
| ACTCGCAG | 0.0817 |
| CCTATTCA | -0.127 |
| TCTACTCA | -0.182 |
| AACTCCCC | -0.0812 |
| CACTTGGC | -0.225 |
| CCGTAATC | 0.0909 |
| CCGTCGTA | 0.471 |
| CCTTAGAG | -0.225 |
| GTATGGAC | 0.0646 |

| Sequence | PBM E-score |
| --- | --- |
| GGATATCA | -0.028 |
| GCGCACGA | -0.0468 |
| AAGACCCT | -0.199 |
| AAGGACCC | -0.239 |
| GAAAATCC | 0.0126 |
| ACGAGATA | 0.346 |
| AACAATGC | -0.0238 |
| TCTCCACA | -0.283 |
| CACTGCGG | 0.0326 |
| CAGAGGCC | -0.0219 |
| CAATCTAC | -0.0683 |
| GGTGCGAC | 0.211 |
| GCTCGGCA | 0.0931 |
| CTGAGTAC | -0.0208 |
| CCGGCATA | 0.0151 |
| CGTCTAAA | -0.0198 |
| CAGAATAA | -0.0347 |
| AGTTCAAA | -0.149 |
| AACCCTAT | -0.0857 |
